Reference: PubChem BioAssay AID180 (DTP/NCI, 2004)
Some entries of the source have several records that differ or are many. Only these are listed. An entry can have further records. Results that share an entry are repeated measurements in other runs, samples, wells, individuals or studies. Signs of the kind (2×) stand for listed records that agree. Starred links: 1 amine or outer side, 2 acyl side, 3 side chain; linkers in the order of their positions; H or OH if unused. Positions of bridges follow the written chain, without caps; N, C: chain ends. Non-standard residues stand in square brackets, D forms with d. Residues, ends and D or L forms follow the SMILES beside them. Chains are numbered I, II in the order given. Actinocin(9to1) = Cc1c2oc3c(C)ccc(C(=O)[*:1])c3nc-2c(C(=O)[*:2])c(N)c1=O; aThr = C[C@H](O)[C@H](N)C(=O)O; NMeV = CN[C@H](C(=O)O)C(C)C; Sar = CNCC(=O)O

System: BDF1 mice, Adenocarcinoma 755 s.c., tumor weight T/C
Assay: NCI In Vivo Anticancer Drug Screen. Data for tumor model Adenocarcinoma 755 (subcutaneous) in B6D2F1 (BDF1) mice
Settings: endpoint: mean tumor weight, higher = larger tumour
How it was run: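 In vivo antitumor screen on a transplantable tumor line. Result equals the measure in compound-treated animals divided by the same measure in vehicle controls.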

[1] = dose: 60.0 mg/kg/injection, schedule: Q01DX011 (ip), vehicle: carboxymethylcellulose (CMC)
[2] = dose: 100.0 mg/kg/injection, schedule: Q01DX011 (ip), vehicle: carboxymethylcellulose (CMC)
[3] = dose: 200.0 mg/kg/injection, schedule: Q01DX011 (ip), vehicle: carboxymethylcellulose (CMC)

With `CSc1ncnc2c1ncn2C1OC(CO)C(O)C1O` (centres undefined) the T/C (dose: 3.8 mg/kg/injection, schedule: Q01DX011 (ip), vehicle: saline) was 108 % of control and 156 % of control and the T/C (dose: 15.0 mg/kg/injection, schedule: Q01DX011 (ip), vehicle: saline) was 27 % of control, 37 % of control, 80 % of control.

For `ClCCN(CCCl)c1ccc(/C=C\c2ccnc3ccccc23)cc1`, the T/C [1] was 28 % of control and 77 % of control.

For `CC(CNC(=O)CCOS(C)(=O)=O)NC(=O)CCOS(C)(=O)=O` (centres undefined), the T/C (dose: 56.0 mg/kg/injection, schedule: Q01DX011 (ip), vehicle: carboxymethylcellulose (CMC)) was 18 % of control, 23 % of control, 55 % of control.

With `O=C(OCC1OC(n2cnc3c(=S)nc[nH]c32)C(OC(=O)c2ccc(Cl)cc2)C1OC(=O)c1ccc(Cl)cc1)c1ccc(Cl)cc1` (centres undefined) the T/C [2] was 4 % of control and 90 % of control and the T/C [3] was 6 % of control and 60 % of control.

In the case of `CCCCn1cnc2c([N+](C)(C)C)ncnc21`, the T/C (dose: 7.5 mg/kg/injection, schedule: Q01DX011 (ip), vehicle: carboxymethylcellulose (CMC)) is reported as 34 % of control and 73 % of control and the T/C (dose: 30.0 mg/kg/injection, schedule: Q01DX011 (ip), vehicle: carboxymethylcellulose (CMC)) is reported as 30 % of control and 60 % of control.

`CCCSc1ncnc2nc[nH]c12` was tested, and the T/C (dose: 50.0 mg/kg/injection, schedule: Q01DX001 (ip), vehicle: alcohol) was 43 % of control and 122 % of control.

In the case of `CCCC(=O)OCC1OC(n2cnc3c(=S)nc(N)[nH]c32)C(OC(=O)CCC)C1OC(=O)CCC` (centres undefined), the T/C (dose: 0.88 mg/kg/injection, schedule: Q01DX011 (ip), vehicle: saline) is reported as 28 % of control and 67 % of control and the T/C (dose: 3.0 mg/kg/injection, schedule: Q01DX011 (ip), vehicle: carboxymethylcellulose (CMC)) is reported as 10 % of control and 72 % of control.

For `O=c1cc2[nH]c(O)cn2c(=O)[nH]1`, the T/C [1] was 34 % of control and 102 % of control.

In the case of `O=S(=O)(F)c1nc(Cl)c2[nH]cnc2n1`, the T/C (dose: 25.0 mg/kg/injection, schedule: Q01DX011 (ip), vehicle: methylcellulose (MC)) is reported as 25 % of control and 113 % of control.

In the case of `Cn1c(=O)c2[nH]c(N/N=C/c3ccccc3)nc2n(C)c1=O`, the T/C (dose: 75.0 mg/kg/injection, schedule: Q01DX011 (ip), vehicle: methylcellulose (MC)) is reported as 34 % of control and 109 % of control.

For `Clc1ncnc2nc[nH]c12`, the T/C (dose: 18.75 mg/kg/injection, schedule: Q01DX001 (ip), vehicle: carboxymethylcellulose (CMC)) was 52 % of control and 105 % of control.

In the case of `Nc1nc(SCC(=O)c2ccccc2)c2[nH]cnc2n1`, the T/C (dose: 3.75 mg/kg/injection, schedule: Q01DX011 (ip), vehicle: saline) is reported as 16 % of control and 53 % of control and the T/C (dose: 7.5 mg/kg/injection, schedule: Q01DX011 (ip), vehicle: saline) is reported as 9 % of control and 41 % of control.

For `O=[N+]([O-])c1ccc(Oc2cc(Cl)c(Cl)cc2Cl)c([N+](=O)[O-])c1`, the T/C [2] was 37 % of control and 118 % of control.

`Nc1nc(=S)c2[nH]cnc2[nH]1` was tested, and the T/C (dose: 0.13 mg/kg/injection, schedule: Q01DX011 (ip), vehicle: methylcellulose (MC)) was 22 % of control, 31 % of control, 63 % of control, the T/C (dose: 0.25 mg/kg/injection, schedule: Q01DX011 (ip), vehicle: saline) was 9 % of control and 53 % of control and the T/C (dose: 123.0 micrograms/kg/injection, schedule: Q01DX011 (ip), vehicle: carboxymethylcellulose (CMC)) was 23 % of control and 84 % of control. For the same compound, the T/C (dose: 245.0 micrograms/kg/injection, schedule: Q01DX011 (ip), vehicle: carboxymethylcellulose (CMC)) was 14 % of control and 75 % of control.

For `CS(=O)(=O)OCCCl`, the T/C (dose: 14.36 mg/kg/injection, schedule: Q01DX011 (ip), vehicle: carboxymethylcellulose (CMC)) was 55 % of control and 110 % of control and the T/C (dose: 57.45 mg/kg/injection, schedule: Q01DX011 (ip), vehicle: carboxymethylcellulose (CMC)) was 79 % of control and 111 % of control.

With `CC(C)n1cnc2c(Cl)ncnc21` the T/C (dose: 31.0 mg/kg/injection, schedule: Q01DX011 (ip), vehicle: carboxymethylcellulose (CMC)) was 10 % of control, 21 % of control, 78 % of control.

In the case of `COCCCNS(=O)(=O)c1ncnc2nc[nH]c12`, the T/C (dose: 5.0 mg/kg/injection, schedule: Q01DX011 (ip), vehicle: saline) is reported as 44 % of control and 90 % of control, the T/C (dose: 6.0 mg/kg/injection, schedule: Q01DX011 (ip), vehicle: carboxymethylcellulose (CMC)) is reported as 52 % of control and 95 % of control and the T/C (dose: 10.0 mg/kg/injection, schedule: Q01DX011 (ip), vehicle: saline) is reported as 45 % of control and 79 % of control.

With `Cc1c2oc3c(C)ccc(C(=O)N[C@@H]4C(=O)N[C@H](C(C)C)C(=O)N5CCC[C@H]5C(=O)N(C)CC(=O)N(C)[C@@H](C(C)C)C(=O)O[C@H]4C)c3nc-2c(C(=O)N[C@@H]2C(=O)N[C@H](C(C)C)C(=O)N3CCC[C@H]3C(=O)N(C)CC(=O)N(C)[C@@H](C(C)C)C(=O)O[C@H]2C)c(N)c1=O` (I: [aThr][dV]P[Sar][NMeV] / II: [aThr][dV]P[Sar][NMeV]; ester I:1-I:C, II:1-II:C; linker I:N-II:N via Actinocin(9to1)) the T/C (dose: 0.02 mg/kg/injection, schedule: Q01DX011 (ip), vehicle: carboxymethylcellulose (CMC)) was 67 % of control and 102 % of control and the T/C (dose: 32.0 micrograms/kg/injection, schedule: Q01DX011 (ip), vehicle: carboxymethylcellulose (CMC)) was 18 % of control, 46 % of control, 58 % of control.

`C[C@H]1C[C@H]2[C@@H]3CC[C@](O)(C(=O)CF)[C@@]3(C)C[C@H](O)[C@]2(F)[C@@]2(C)C=CC(=O)C=C12` was tested, and the T/C (dose: 2.5 mg/kg/injection, schedule: Q01DX011 (sc), vehicle: steriod suspending solution) was 43 % of control and 79 % of control and the T/C (dose: 5.0 mg/kg/injection, schedule: Q01DX011 (sc), vehicle: steriod suspending solution) was 13 % of control and 55 % of control.

With `O=c1[nH]cc(N(CCCl)CCCl)c(=O)[nH]1` the T/C (dose: 0.84 mg/kg/injection, schedule: Q01DX011 (ip), vehicle: carboxymethylcellulose (CMC)) was 32 % of control, 34 % of control, 79 % of control.

For `CCN(CC)c1ccc2cc3ccc(=[N+](CC)CC)cc-3oc2c1`, the T/C (dose: 10.0 mg/kg/injection, schedule: Q01DX011 (ip), vehicle: methylcellulose (MC)) was 71 % of control and 120 % of control.

With `Cn1c(=O)c2[nH]cnc2n(C)c1=O` the T/C (dose: 46.4 mg/kg/injection, schedule: Q01DX011 (ip), vehicle: carboxymethylcellulose (CMC)) was 50 % of control and 118 % of control and the T/C (dose: 58.0 mg/kg/injection, schedule: Q01DX011 (ip), vehicle: carboxymethylcellulose (CMC)) was 52 % of control (2×) and 90 % of control.

In the case of `Oc1ccc2ccccc2c1N=Nc1ccc(F)cc1`, the T/C (dose: 112.0 mg/kg/injection, schedule: Q01DX011 (ip), vehicle: carboxymethylcellulose (CMC)) is reported as 19 % of control and 50 % of control and the T/C [3] is reported as 29 % of control and 64 % of control.

With `Cc1nc2nc(N)nc(N)c2nc1C` the T/C (dose: 25.25 mg/kg/injection, schedule: Q01DX011 (ip), vehicle: carboxymethylcellulose (CMC)) was 34 % of control, 89 % of control, 109 % of control, the T/C (dose: 31.25 mg/kg/injection, schedule: Q01DX011 (ip), vehicle: carboxymethylcellulose (CMC)) was 119 % of control and 158 % of control and the T/C (dose: 50.5 mg/kg/injection, schedule: Q01DX011 (ip), vehicle: carboxymethylcellulose (CMC)) was 58 % of control and 90 % of control. The T/C (dose: 101.0 mg/kg/injection, schedule: Q01DX011 (ip), vehicle: carboxymethylcellulose (CMC)) was 45 % of control and 72 % of control.

With `CCOc1ccc2nc(S(N)(=O)=O)sc2c1` the T/C (dose: 25.0 mg/kg/injection, schedule: Q01DX011 (ip), vehicle: carboxymethylcellulose (CMC)) was 43 % of control, 55 % of control, 80 % of control and the T/C (dose: 50.0 mg/kg/injection, schedule: Q01DX011 (ip), vehicle: carboxymethylcellulose (CMC)) was 42 % of control and 82 % of control.

With `CCOC(N)=O` the T/C (dose: 250.5 mg/kg/injection, schedule: Q01DX011 (ip), vehicle: carboxymethylcellulose (CMC)) was 39 % of control, 53 % of control, 69 % of control, the T/C (dose: 334.0 mg/kg/injection, schedule: Q01DX011 (ip), vehicle: carboxymethylcellulose (CMC)) was 26 % of control and 87 % of control and the T/C (dose: 410.0 mg/kg/injection, schedule: Q01DX011 (ip), vehicle: carboxymethylcellulose (CMC)) was 13 % of control, 28 % of control, 77 % of control.

`CCC1CN1CC1CO1` (centres undefined) was tested, and the T/C (dose: 20.0 mg/kg/injection, schedule: Q01DX011 (ip), vehicle: saline) was 28 % of control and 81 % of control and the T/C (dose: 40.0 mg/kg/injection, schedule: Q01DX011 (ip), vehicle: saline) was 14 % of control and 73 % of control.

With `CC(=O)OCC(=O)[C@@]1(O)CC[C@H]2[C@@H]3C[C@H](C)C4=CC(=O)C=C[C@]4(C)[C@@]3(F)[C@@H](O)C[C@@]21C` the T/C (dose: 0.25 mg/kg/injection, schedule: Q01DX011 (sc), vehicle: steriod suspending solution) was 41 % of control and 73 % of control, the T/C (dose: 0.5 mg/kg/injection, schedule: Q01DX011 (sc), vehicle: steriod suspending solution) was 46 % of control, 72 % of control, 87 % of control and the T/C (dose: 1.0 mg/kg/injection, schedule: Q01DX011 (sc), vehicle: steriod suspending solution) was 59 % of control and 85 % of control. The T/C (dose: 2.0 mg/kg/injection, schedule: Q01DX011 (sc), vehicle: steriod suspending solution) was 51 % of control and 81 % of control.

`O=CNC(Cc1ccc(N(CCCl)CCCl)cc1)C(=O)O` (centres undefined) was tested, and the T/C (dose: 20.0 mg/kg/injection, schedule: Q01DX011 (ip), vehicle: carboxymethylcellulose (CMC)) was 14 % of control and 46 % of control.
